Experimental data reported in PubChem BioAssay AID624417 (National Center for Advancing Translational Sciences (NCATS), 2012).
In all, about 410,000 compounds went through this assay and about 6,400 (1.6%) were called active. Inconclusive means that the source gave no clear call. Such entries were picked first, then a sample of the others. The call rests on the fitted dose curve; in most records, active means well fitted inhibition curve with a large enough effect; inconclusive means small, poorly fitted or top-dose-only effect; inactive means no such curve, though single readings can be large or run the other way. No potency is given beside an inconclusive call; the fits are too rough.
Further: nearly all actives have a fitted effect of over 55% in size.
On the % scale 0 is the no-effect control and ±100 the full control effect; potency means the concentration at half of the fitted maximal effect; tags describe the fitted curve by direction and shape.

These compounds were tested against Glucagon-like peptide 1 receptor (Homo sapiens) (UniProt P43220) (assay: qHTS of GLP-1 Receptor Inverse Agonists (Inhibition Mode)). Conditions: HEK293 GLP-1R CRE-luciferase, luminescence, 24 h, GLP-1R form is constitutively active; activity change, negative = inhibition: at 38.3 µM (top of the series) unless noted.
UniProt P43220, sequence (P43220 whole entry, looked up): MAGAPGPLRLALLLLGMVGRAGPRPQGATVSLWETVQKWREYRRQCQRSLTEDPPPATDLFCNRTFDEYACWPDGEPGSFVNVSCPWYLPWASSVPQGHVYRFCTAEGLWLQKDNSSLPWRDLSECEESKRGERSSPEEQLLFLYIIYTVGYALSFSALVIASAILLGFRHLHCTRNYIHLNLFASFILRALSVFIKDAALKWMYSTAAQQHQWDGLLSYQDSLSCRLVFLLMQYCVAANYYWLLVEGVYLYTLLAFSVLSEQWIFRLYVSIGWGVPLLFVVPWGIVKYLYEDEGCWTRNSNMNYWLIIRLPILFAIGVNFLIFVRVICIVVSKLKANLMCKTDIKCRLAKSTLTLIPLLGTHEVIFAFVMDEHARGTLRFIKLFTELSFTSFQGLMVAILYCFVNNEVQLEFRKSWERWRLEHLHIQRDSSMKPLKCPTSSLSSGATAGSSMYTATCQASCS
Outline: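 Inverse agonism was detected as reduced cAMP-driven luciferase luminescence after 24 h compound treatment. The cells were HEK293 clones expressing constitutively active human GLP-1R with the reporter. Reporter-only and GPR119 cell lines served as counterscreen controls.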
In the case of `CCOC(=O)[C@@H]1[C@H]2COc3cc(OC)ccc3[C@@H]2N2C(=O)N(c3ccc(C(F)(F)F)cc3)C(=O)[C@@]12C`, the Potency is reported as inconclusive [inhibitor, partial curve, poor fit].
In the case of `c1ccc(-c2nnc(N3CCCC3)nc2-c2ccccc2)cc1`, the Potency is reported as inconclusive [inhibitor, partial curve, poor fit].
In the case of `Cc1ccn2c(NC3CCCC3)c(-c3cccs3)nc2c1`, the Potency is reported as inconclusive [inhibitor, partial curve, poor fit].
In the case of `O=C(O)CCCn1cc(NC(=O)c2c(F)cccc2F)cn1`, the “activity change, negative = inhibition” value is reported as inactive: 18.3%.
With `COc1cc(/C=C2/C(=N)N3N=C(CC(=O)N4CCOCC4)SC3=NC2=O)ccc1OC(C)c1ccccc1` (centres undefined) the Potency was inconclusive [inhibitor, partial curve, poor fit].
`COc1ccc(C(C[N+](=O)[O-])c2c(C)cc3ccccn23)cc1` (centres undefined) was tested, and the Potency was inconclusive [inhibitor, single point].
For `CCCOc1ccc(OC(=O)c2cn(-c3ccc(OC)cc3)c(=O)c3ccccc23)cc1`, the “activity change, negative = inhibition” value was inactive: -22.7%.
With `Cc1ccc(S(=O)(=O)c2c(C)cc(C)nc2Oc2cccc(C(F)(F)F)c2)cc1` the Potency was active: 5.01 µM.
`CCOC(=O)[C@]12CCC=C1N(Cc1cccc3ccccc13)C(=O)[C@H](CC(=O)NCC1CCCCC1)C2` was tested, and the Potency was inconclusive [inhibitor, partial curve, poor fit].
For `O=C(NC(=S)Nc1ccccc1CO)C1CCCCC1`, the “activity change, negative = inhibition” value was inactive: -9.19%.
`Cc1[nH]n(-c2ccccc2)c(=O)c1N=Nc1ccc(F)cc1` was tested, and the “activity change, negative = inhibition” value was inactive: 1.84%.
For `Cc1cccc(C(=O)NC(=S)Nc2cccc3nc(C)ccc23)c1`, the Potency was inconclusive [inhibitor, partial curve, poor fit].
`CCCOc1ccc(C(=O)Nc2ccc3oc(-c4ccc(N(C)C)cc4)nc3c2)cc1` was tested, and the “activity change, negative = inhibition” value was inactive: -9.48%.
For `CCn1cc(/C=N\NC(=O)Cc2ccc([N+](=O)[O-])cc2)c(C)n1`, the “activity change, negative = inhibition” value was inactive: 8.59%.
For `CN(C)CCCNC(=O)c1ccc(Oc2ccccc2)cc1`, the Potency was inconclusive [inhibitor, partial curve, poor fit].
In the case of `Cc1cccc(C)c1NC(=O)CSc1nc2ccccc2c2nc(CCc3c(C)n[nH]c3C)nn12`, the “activity change, negative = inhibition” value is reported as inactive: 14.4%.
For `COc1ccc(C(=O)NC(=S)Nc2ccccc2N2CCCCC2)cc1[N+](=O)[O-]`, the Potency was active: 1.12 µM.
`COc1cc(Cn2c(-c3nonc3N)nc3ccccc32)ccc1C` was tested, and the Potency was inconclusive [inhibitor, full curve, poor fit].
In the case of `O=C(/C=C/c1ccccc1)N(Cc1cccc(Cl)c1)C1CCS(=O)(=O)C1` (centres undefined), the Potency is reported as inconclusive [inhibitor, single point].
